In ChEMBL document CHEMBL4888484, “Replenishing the malaria drug discovery pipeline: Screening and hit evaluation of the MMV Hit Generation Library 1 (HGL1) against asexual blood stage Plasmodium falciparum ,using a nano luciferase reporter read-out” (2022):
The whole screen tested about 150,000 compounds, of which about 540 (0.36%) showed an effect of 50% or more. This is one part of the list.

What follows are compounds tested on Plasmodium falciparum (assay: Primary screen in NF54 nanoGlo assay, in single point, at 2uM, 72h; a lower Z score goes with more inhibition). Conditions: timepoint 72 hour.
Assay type: functional, Erythrocyte

Compound | % Inhibition [%] | Z score
Cc1n[nH]nc1C(=O)N[C@@H](C)c1cccnc1 | -9 | 1.34
Cc1ccc(S(=O)(=O)Cc2cc(=O)n(C)c(=O)n2C)c(C)c1 | -11 | 2.1
Cc1cccc(Cl)c1OCCCNCc1ccco1 | -1 | 0.09
CNC(=O)[C@@H](NC(=O)Cc1cccc(Cl)c1Cl)C(C)C | -14 | 1.24
O=S(=O)(Nc1nnc(C2CC2)s1)c1cncc(Cl)c1 | 10 | -1.15
C[C@H]1CCCCN1S(=O)(=O)NC1CCCCCC1 | -14 | 1.78
CCCCOc1ccccc1NC(=O)NCC1CS(=O)(=O)C1 | -4 | 0.38
Cc1oc(-c2ccccc2NS(C)(=O)=O)nc1CN(C)C[C@@H](C)Cc1ccc2c(c1)OCO2 | -3 | 0.48
CC1OCCN(C(=O)c2ccc3c(c2)CCO3)C1C (centres undefined) | -6 | 0.78
Clc1cnc(NCCNCc2ccncc2)c(Cl)c1 | -9 | 1.13
O=C(CNC(=O)C1CCCCC1)NCCCO | -14 | 1.93
O=C(NCCc1nc2ccccc2[nH]1)[C@@H]1CC=CCC1 | -14 | 1.22
N#Cc1cccc(NC(=O)N2C[C@@H]3CC[C@H]2CN(Cc2ccncc2)C3)c1 | -15 | 3.09
CN1CCCn2nc([C@H]3CCCN(C(=O)Cn4ccnc4)C3)cc2C1=O | -11 | 2.1
Cc1ccc2[nH]cc(-c3ncccc3NC(=O)C(C)C)c2c1 | 2 | -0.27
Cc1ccc(C(=O)C2CCN(C(=O)Cn3c(C)cc4ccccc43)CC2)c(C)c1 | -2 | 0.2
N=C(Cc1ccc(Cl)cc1Cl)NOC(=O)Cc1ccccc1 | 6 | -0.79
COc1ccc(-c2cc3n(n2)C[C@@](C)(C(=O)NCc2ccccc2OC)N(c2cccc(OC)c2)C3=O)cc1 | 51 | -8.04
N#Cc1nccnc1O[C@H]1CC[C@H](NC(=O)c2ccc(F)cc2)CC1 | -9 | 1.02
Cc1ccc(CNC(=O)[C@]2(C)Cn3nc(-c4cccs4)cc3C(=O)N2c2cc(Cl)ccc2C)cc1 | -9 | 1.4
COc1ccc(F)c(F)c1CN1CCC(N2CCc3ccccc3C2)CC1 | -6 | 0.59

Compound | % Inhibition [%] | Z score
Cc1ccc(-n2nc(N3CCCN(C(=O)CC4CCCC4)CC3)ccc2=O)cc1C | 9 | -0.99
CCC(=O)N1CC[C@H](c2nc(Cc3cc(C)cc(C)c3)no2)C1 | -5 | 0.81
Cc1nc(C2(C)CCN(S(=O)(=O)c3ccc(C(C)(C)C)cc3)CC2)no1 | -7 | 0.88
Cn1c(=O)n([C@H]2CCN(C(=O)c3cccs3)C2)c2ncccc21 | -10 | 1.3
COCCN(CC1CN(Cc2ccc(OC)cc2)CC1c1cccc(OC)c1)C(=O)C(C)C (centres undefined) | 2 | -0.2
O=C(CCc1ccccc1)N1CCC2(CC1)C[C@@H](CCOCC1CC1)CCO2 | -7 | 1.27
COc1ccc(NCc2ccc(F)cn2)cc1N1CCOC1=O | -11 | 1.5
Cc1cnc(CNC(=O)[C@H]2CCc3ccccc3C2)s1 | -8 | 1.04
CCCCOc1cccc([C@@H]2c3c(-c4ccccc4O)n[nH]c3C(=O)N2Cc2ccc3c(c2)OCO3)c1 | -5 | 0.67
CCOC(=O)C(C#N)C(c1cccnc1)c1c(C)n[nH]c1O (centres undefined) | 6 | -0.8
O=C(NCCc1nnc2n1CCCC2)C1=CCCCCC1 | -11 | 1.46
CN1CCC(n2nc(-c3ccco3)nc2CN(C)Cc2ccccn2)CC1 | -19 | 2.47
COC1(CC(=O)Nc2cccc(CN)c2)CCC1 | -8 | 1.46
Cc1ccc2c(ccn2CC(=O)Nc2cnn(C)c2)c1 | 0 | 0.06
Cc1ncc(C(=O)Nc2ncnn2C(C)(C)C)c(C)n1 | -7 | 1.16
CCN1C[C@@H](c2ccccc2)CC2(CCN(S(=O)(=O)N3CCCC3)CC2)C1 | -16 | 1.51
COc1ncc(CN[C@H]2CCC23CCOCC3)cc1Cl | -2 | 0.31
CC(C(=O)N1CCS(=O)(=O)C(C)C1)c1cn(C)c2ccccc12 (centres undefined) | -3 | 0.45
COc1cc(=O)[nH]cc1C(=O)N(Cc1ccccc1)C1CCCCC1 | -7 | 0.91
C[C@@](CO)(Nc1ncc(Br)cn1)C1CC1 | -15 | 2.21
CCC1Oc2ccc(NC(=O)C(CC)c3ccccc3)cc2CN(Cc2ccc(F)cc2)C1=O (centres undefined) | -16 | 1.52
